From patent US6344453B1, “Insecticidal heterocyclic compounds” (priority 1989, dated 2002)

Each compound was assayed on Nephotettix cincticeps (green rice leafhopper) exhibiting resistance to organophosphorus series insecticides (assay: Biotest against Nephotettix cincticeps (green rice leafhopper) resistant to organophosphorus-series insecticides, spray on rice seedlings). Details: 48 h, read-out: insect mortality.

SMILES | mortality at 200 ppm [%]
CON1CN/C(=N\[N+](=O)[O-])N(Cc2ccc(Cl)nc2)C1 [Compound 14, 1-(2-chloro-5-pyridylmethyl)-5-methoxy-2-nitroimino-hexahydro-1,3,5-triazine] | 100
N#C/N=C1\COCCN1Cc1ccc(Cl)nc1 [Compound 2, 4-(2-chloro-5-pyridylmethyl)-3-cyanoiminomorpholine] | 100
CN1CN/C(=N\C#N)N(Cc2ccc(Cl)nc2)C1 [Compound 17, 1-(2-chloro-5-pyridylmethyl)-5-neath-2-cyanoimino-hexahydro-1,3,5-triazine] | 100
CC(C)N1CN/C(=N\[N+](=O)[O-])N(Cc2ccc(Cl)nc2)C1 [Compound 15] | 100
CN1CN/C(=N\[N+](=O)[O-])N(Cc2cnc(Cl)s2)C1 [Compound 12] | 100
CN1CN/C(=N\[N+](=O)[O-])N(Cc2ccc(Cl)nc2)C1 [Compound 11, 1-(2-chloro-5-pyridylmethyl)-5-methyl-2-nitroimino-hexahydro-1,3,5-triazine] | 100
N#C/N=C1\COCCN1Cc1cnc(Cl)s1 [Compound 3] | 100
CC(C)N1CN(Cc2ccc(Cl)nc2)C(=N[N+](=O)[O-])N(Cc2ccc(Cl)nc2)C1 [Compound 16] | 100
CC(C)c1noc(C(C)N2CN(C)CN/C2=N\[N+](=O)[O-])n1 (stereo not drawn) [Compound 40] | 100
